Measured values reported in PubChem BioAssay AID894 (National Center for Advancing Translational Sciences (NCATS), 2007).
Screen size: about 150,000 compounds; about 6,500 (4.3%) were called active. The shares of active, inactive and inconclusive entries below differ from those in the screen. Calls follow the shape of the dose curve; as a rule, active = well fitted inhibition curve with a large enough effect (not every such curve was filed as active); inconclusive = small, poorly fitted or top-dose-only effect, or another doubt; inactive = no such curve, though single readings can be large or run the other way. No potency is given beside an inconclusive call; the fits are too rough.
% is scaled to controls: 0 for no effect and ±100 for the full control effect; potency is read from the fitted curve at half-maximal effect; tags tell the direction and shape of the fitted curve.

These molecules were tested against 15-hydroxyprostaglandin dehydrogenase [NAD(+)] (Homo sapiens) (UniProt P15428) (assay: qHTS Assay for Inhibitors of HPGD (15-Hydroxyprostaglandin Dehydrogenase)). Conditions: purified HPGD, NADH fluorescence kinetic, PGE2 substrate; activity change, negative = inhibition: stronger effect = lower value.
Chain of UniProt P15428 (P15428 whole entry, looked up): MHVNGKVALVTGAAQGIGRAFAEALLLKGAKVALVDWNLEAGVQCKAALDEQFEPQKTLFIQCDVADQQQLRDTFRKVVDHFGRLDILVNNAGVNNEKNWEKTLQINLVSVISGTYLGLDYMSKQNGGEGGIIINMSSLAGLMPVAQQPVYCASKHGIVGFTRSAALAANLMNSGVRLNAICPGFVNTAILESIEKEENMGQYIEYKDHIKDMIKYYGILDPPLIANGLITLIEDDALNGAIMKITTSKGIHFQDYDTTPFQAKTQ
How it was run: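 NADH formation kinetics: reaction with 30 uM PGE2 and 1 mM NAD+ (final), 20 nM enzyme, Tris-HCl pH 8 with Tween 20, after 15 min compound preincubation at room temperature. Fluorescence change, last versus first of five reads.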
For `Cc1cnc(C(=O)Nc2cccc3cccnc23)cn1`, the Potency was inconclusive [inhibitor, single point].
With `Cc1sc2ncnc(SCC(=O)NCC(C)C)c2c1C` the Potency was active: 15.8 µM.
For `O=c1cc(-c2ccc(O)cc2O)oc2ccccc12`, the Potency was inconclusive [inhibitor, partial curve, poor fit].
For `Cc1ccsc1/C=C(\C(=O)c1ccc(OC(C)C)cc1)c1nc2ccccc2o1`, the Potency was inconclusive [inhibitor, partial curve].
With `Cc1ccc(S(=O)(=O)NCCCCCC(=O)N(C)C)cc1` the activity change, negative = inhibition was inactive: -11.6%.
In the case of `O=C(CN1CCCCCC1)Nc1ccc(F)c(F)c1`, the activity change, negative = inhibition is reported as inactive: -24.1%.
For `Nc1ccc2c(c1)sc1ccccc12`, the Potency was inconclusive [inhibitor, partial curve].
In the case of `O=c1c(-c2cc(F)cc(F)c2)nc2cnc(N3CCNCC3)nc2n1Cc1cccs1`, the activity change, negative = inhibition is reported as inactive: -16.4%.
For `Cc1ccc(-n2nnc3c(SCC(=O)NCc4ccco4)ncnc32)cc1`, the Potency was inconclusive [inhibitor, partial curve, poor fit].
In the case of `COc1ccc(-c2csc(NC(=O)C3CCCO3)n2)cc1` (centres undefined), the Potency is reported as inconclusive [inhibitor, partial curve].
In the case of `O=c1[nH]cnc2c1sc1nc3c(c(-c4ccc(Cl)cc4)c12)CCC3`, the Potency is reported as inconclusive [inhibitor, partial curve].
With `COc1ccc(CCn2c(N)c(C(=O)NCc3ccco3)c3nc4ccccc4nc32)cc1` the Potency was inconclusive [inhibitor, partial curve].
With `Cc1c(C(=O)O)oc2c3c(ccc12)OCCO3` the Potency was inconclusive [inhibitor, partial curve].
`O=C(NCCCCNC(=O)c1cccs1)c1cccs1` was tested, and the activity change, negative = inhibition was inactive: -14.1%.
In the case of `COCCn1c(=O)c(-c2ccc(Cl)cc2)nc2cncnc21`, the Potency is reported as inconclusive [inhibitor, partial curve].
With `N#C/C(=C\c1ccc(O)c(O)c1)C(=O)OCCc1cccs1` the Potency was active: 28.2 µM.
For `FC(F)(F)c1cc(-c2cccs2)nc(-n2cc(Cl)cn2)n1`, the Potency was inconclusive [inhibitor, single point].
With `COc1ccc(NC(=O)CSc2ccccc2)c(OC)c1` the activity change, negative = inhibition was inactive: -28%.
In the case of `O=C(O)c1ccc(N/N=C/c2ccc(F)c(F)c2)cc1`, the activity change, negative = inhibition is reported as inactive: -22.1%.
For `Cc1ccc(-c2nnc(-c3ccc(Br)cc3)o2)o1`, the Potency was inconclusive [inhibitor, single point].
In the case of `COC(=O)c1nc2n(n1)C(c1cccc(Cl)c1)C1=C(CCCC1=O)N2` (centres undefined), the Potency is reported as active: 15.8 µM.
`CCOc1nc(-c2ccccc2)ccc1-c1noc(-c2ccncc2)n1` was tested, and the Potency was inconclusive [inhibitor, partial curve].
In the case of `Cc1ccc(CNC(=O)c2csc3c2CCCCC3)cc1`, the Potency is reported as inconclusive [inhibitor, full curve, poor fit].
`Cc1ccc(S(=O)(=O)n2nc(-c3ccco3)nc2SCc2ccccc2)cc1` was tested, and the Potency was active: 25.1 µM.
`CNc1ccc(Br)cc(C(=O)/C=C/c2cc(OC)ccc2OC)c1=O` was tested, and the Potency was inconclusive [inhibitor, partial curve].
With `CCc1c(C)nc2cc(-c3cccs3)[nH]n2c1=O` the Potency was inconclusive [inhibitor, partial curve].
For `Cc1cc(C)n(CCCO)c(=O)c1C#N`, the activity change, negative = inhibition was inactive: -13.1%.
`NCCOc1ccccc1Cc1ccccc1` was tested, and the Potency was inconclusive [inhibitor, partial curve].
For `CC(NC(=O)Cc1ccc(-c2ccccc2)cc1)c1ccccc1` (centres undefined), the Potency was active: 14.1 µM.
`N#Cc1c(-c2ccc(F)cc2)cc(-c2cccnc2)nc1N` was tested, and the Potency was inconclusive [inhibitor, partial curve].
For `COC(=O)c1cc(Br)c(=O)n(Cc2ccco2)c1`, the activity change, negative = inhibition was inactive: -4.11%.
`CCn1ncc(C2=NOC(C(=O)NCc3ccccc3)C2)c1C` (centres undefined) was tested, and the Potency was inconclusive [inhibitor, partial curve].
For `CCCc1nc2sc3c(SCC(=O)NCc4ccco4)ncnc3c2c2c1CCC2`, the Potency was inconclusive [inhibitor, single point].
For `N#Cc1nc(-c2cccs2)oc1NCCCN1CCOCC1`, the Potency was inconclusive [inhibitor, partial curve].
With `Cc1nc(NCCO)c2nnn(Cc3ccccc3F)c2n1` the activity change, negative = inhibition was inactive: 2.03%.
In the case of `CCN(N=Nc1cccc([N+](=O)[O-])c1)c1cccc([N+](=O)[O-])c1`, the activity change, negative = inhibition is reported as inactive: -17.2%.
For `CCn1c(=O)n(CC(=O)NC2CCCC(C)C2C)c(=O)c2ccccc21` (centres undefined), the activity change, negative = inhibition was inactive: -21.1%.
`CCOC(=O)c1cc2c(=O)n3ccccc3nc2n(CCOC)c1=NC(=O)c1ccncc1` was tested, and the Potency was inconclusive [inhibitor, partial curve].
For `CN(C)c1oc(-c2ccc(OCc3ccccc3)cc2)nc1C#N`, the Potency was inconclusive [inhibitor, partial curve].
With `C=CCSSSCC=C` the Potency was active: 28.2 µM.
In the case of `CC(/C=N/NC(=S)Nc1cccc(S(=O)(=O)N(C)C)c1)c1ccccc1` (centres undefined), the Potency is reported as active: 35.5 µM.
For `c1ccc2c(c1)ccc1nnc(-c3ccc4c(c3)OCO4)n12`, the Potency was inconclusive [inhibitor, partial curve, poor fit].
In the case of `CCOc1ccc(NC(=S)N(CCc2c(C)[nH]c3ccccc23)Cc2ccco2)cc1`, the activity change, negative = inhibition is reported as inactive: -17%.
In the case of `O=C(Nc1ccc(NC(=O)c2ccc(S(=O)(=O)c3ccccc3)cc2)cc1)c1ccccc1`, the Potency is reported as inconclusive [inhibitor, single point].
For `NC(=O)C(c1ccc(Cl)cc1)c1ccc(Sc2ccc(Cl)cc2)nn1` (centres undefined), the activity change, negative = inhibition was inactive: -7.72%.
For `O=C(NNC(=O)c1ccc(F)cc1)C(=O)N1CCCCC1`, the activity change, negative = inhibition was inactive: -7.31%.
For `C/C(=N\OC(=O)c1ccc(Cl)cc1)c1sc(-c2ccccc2)nc1C`, the Potency was inconclusive [inhibitor, partial curve].
For `CSc1ccc(S(=O)(=O)NC2CCCCC2)cc1`, the Potency was inconclusive [inhibitor, partial curve, poor fit].
For `O=C(Nc1ccccc1)c1ccc(NC2CCCCC2)c(S(=O)(=O)N2CCOCC2)c1`, the Potency was inconclusive [inhibitor, partial curve].
In the case of `CC(OC(=O)c1cccs1)C(=O)NCc1ccc2c(c1)OCO2` (centres undefined), the Potency is reported as active: 28.2 µM.
For `CCN(CC)CCOC(=O)c1ccc(NC(=O)COc2cc(=O)n(CC)c3ccccc23)cc1`, the Potency was inconclusive [inhibitor, single point].
With `N[C@@H](C(=O)O)c1ccc(C(=O)O)c(O)c1` the Potency was inconclusive [inhibitor, partial curve].
For `Cc1ccc(CCNC(=O)C2CCC(CNc3c(N4CCC(C)CC4)c(=O)c3=O)CC2)cc1` (centres undefined), the Potency was inconclusive [inhibitor, partial curve, poor fit].
For `Cc1ccc2[nH]c3c(c2c1)CN(C(=O)CN1CCN(c2cccc(C)c2C)CC1)CC3`, the Potency was inconclusive [inhibitor, partial curve].
In the case of `Cc1onc(-c2ccccc2Cl)c1C(=O)Nc1nnc(-c2ccc(Br)cc2)s1`, the Potency is reported as inconclusive [inhibitor, partial curve].
With `O=C(O)Cn1c(=O)cnc2ccccc21` the Potency was inconclusive [inhibitor, single point].
In the case of `COc1ccc2c(c1)OCC(Cc1ccc(OC)c(O)c1)C2=O` (centres undefined), the Potency is reported as inconclusive [inhibitor, partial curve].
With `COc1ccc(OC)c2sc(NC(=O)CCSc3ccccc3)nc12` the Potency was inconclusive [inhibitor, partial curve].
With `CCOC(=O)C1CCCN(C(=O)c2cc(-c3ccccc3)on2)C1` (centres undefined) the Potency was active: 28.2 µM.
With `CNC(=O)[C@]1(C)C[C@H]1[C@H](NC(=O)[C@]1(C)C[C@H]1[C@H](NC(=O)OCc1ccccc1)c1ccccc1)c1ccccc1` the activity change, negative = inhibition was inactive: -8.02%.
In the case of `Clc1ccc(OCc2nc(-c3ccncc3)no2)c(Cl)c1`, the Potency is reported as active: 12.6 µM.
`COc1ccccc1-c1nnc(SC2CCc3ccccc3NC2=O)s1` (centres undefined) was tested, and the Potency was inconclusive [inhibitor, single point].
In the case of `S=C(c1ccc(-c2ccccc2Cl)o1)N1CCCCC1`, the Potency is reported as active: 28.2 µM.
For `Cc1cc(Nc2ccccc2)n(-c2cccc(Cl)c2)n1`, the Potency was active: 28.2 µM.
For `CCOC(=O)C1=C(C)NC(=O)C1CC(=O)Nc1ccccc1` (centres undefined), the Potency was active: 35.5 µM.
In the case of `Cc1noc(NS(=O)(=O)c2ccc(NC(=O)COc3ccc(Cl)cc3Cl)cc2)c1C`, the Potency is reported as active: 15.8 µM.
In the case of `Cc1nnc(NC(=O)C2c3ccccc3Oc3ccccc32)s1`, the Potency is reported as active: 22.4 µM.
In the case of `CC(=O)N[C@H](Cc1c[nH]c2ccccc12)C(N)=O`, the activity change, negative = inhibition is reported as inactive: -13.8%.
`CC1(C)Cc2c(c(-c3ccccc3)[nH]c(=O)c2C#N)CS1` was tested, and the Potency was inconclusive [inhibitor, partial curve].
With `O=C(c1ccc(-c2ccc([N+](=O)[O-])cc2)o1)N1CCCCC1` the Potency was active: 7.08 µM.
For `O=C(CSc1nc2ccc(NC(=O)C3CCCCC3)cc2s1)NCC1CCCO1` (centres undefined), the Potency was active: 28.2 µM.
In the case of `C[C@]12C=CC(=O)C=C1CCC1C2C(O)C[C@]2(C)C1CC[C@]2(O)C(=O)CO` (some centres undefined), the activity change, negative = inhibition is reported as inactive: -6.35%.
For `CCCOc1ccc(-c2nc(OC)c3ccccc3n2)cc1`, the Potency was inconclusive [inhibitor, partial curve].
`COCCCn1cnc2c(c1=O)c1nc3ccccc3nc1n2-c1ccccc1` was tested, and the Potency was inconclusive [inhibitor, partial curve].
